# In PubChem BioAssay (EPA / NIEHS):
# “And” between values parts separate entries of the source, which are not always exact repeats. Equal values may be shown once. For some assays here: This list holds what a sample rich in hits left over. Records with an inconclusive call do not appear. The entries are a selection whose mix differs from that of the whole data set. The source made the active and inactive calls. How the source made its calls, unless noted: active means hit-call score of the fitted dose curve at least 0.9, where 1 is the maximum; inactive means score below 0.9.
# What was measured:
# [1] = biological target: human RAR-related Orphan Receptor gamma (RORg), RORC (gene 6097) (UniProt P51449); test: ATG_RORg_TRANS: Attagene TRANS-FACTORIAL HepG2 Assay for human RAR-related Orphan Receptor gamma (RORg) (AID 2283011; active means hit-call score of the fitted dose curve at least 0.9, where 1 is the maximum)
# In short: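 Transient MRTU transfection of HepG2 (TRANS format, exogenous NR-Gal4 chimera). 24 h dosing. Total RNA → oligo(dT) RT → PCR → 6-FAM labelling → HpaI cut → CE. Gain vs DMSO.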
# [2] = read-out: Monokine induced gamma interferon (MIG), CXCL9 (gene 4283); test: BSK_3C_MIG: BioMAP Diversity Plus: 3C Assay for Monokine induced gamma interferon (MIG) Biomarker Activity (AID 2283021); conditions: actives raise or lower the signal; primary human endothelial cells (HUVEC);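 further: MIG protein level measured by immunoassay in the treated endothelial cultures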
# In short: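 HUVEC primary endothelial cultures dosed with chemical; MIG quantified by ELISA at 24 h. Data fitted bidirectionally against DMSO control, with parallel SRB total-protein staining for cytotoxicity.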
# [3] = read-out: Vascular cell adhesion molecule 1 (VCAM1), VCAM1 (gene 7412); test: BSK_4H_VCAM1: BioMAP Diversity Plus: 4H Assay for Vascular cell adhesion molecule 1 (VCAM1) Biomarker Activity (AID 2283033); conditions: actives raise or lower the signal; primary human endothelial cells (HUVEC)
# In short: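 Primary human umbilical vein endothelial cells, 4H stimulation system, treated for 24 h; cell-surface VCAM-1 quantified by ELISA. Bidirectional fitting against DMSO; cytotoxicity tracked by SRB total-protein staining in parallel cultures.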
# [4] = read-out: Interferon-gamma inducible Protein 10 (IP10), CXCL10 (gene 3627); test: BSK_BE3C_IP10: BioMAP Diversity Plus: BE3C Assay for Interferon-gamma inducible Protein 10 (IP10) Biomarker Activity (AID 2283034); conditions: actives raise or lower the signal; primary human bronchial epithelial cells
# In short: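 Primary human bronchial epithelial cells, with IP-10 measured by ELISA 24 hours after chemical dosing. Bidirectional fit against DMSO; cytotoxicity checked by SRB total protein staining in parallel cultures.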
# [5] = read-out: Plasminogen activator inhibitor-1 (PAI1), SERPINE1 (gene 5054); test: BSK_BE3C_PAI1: BioMAP Diversity Plus: BE3C Assay for Plasminogen activator inhibitor-1 (PAI1) Biomarker Activity (AID 2283037); conditions: actives raise or lower the signal; primary human bronchial epithelial cells
# In short: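 Primary human bronchial epithelial cells (BE3C system) exposed 24 h; PAI-1 quantified by ELISA. Parallel sulforhodamine B staining of total protein flags cytotoxicity. Bidirectional fit versus DMSO.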
# [6] = BSK_CASM3C_SRB: Viability Assessment in the BioMAP Diversity Plus: CASM3C Assay (AID 2283050); conditions: primary human coronary artery smooth muscle cells
# [7] = read-out: Monokine induced gamma interferon (MIG), CXCL9 (gene 4283); test: BSK_hDFCGF_MIG: BioMAP Diversity Plus: hDFCGF Assay for Monokine induced gamma interferon (MIG) Biomarker Activity (AID 2283063); conditions: actives raise or lower the signal; primary human foreskin fibroblasts
# In short: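 Fibroblasts (human foreskin, primary) dosed, 24 h, MIG by ELISA; fit bidirectional vs DMSO.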
# [8] = read-out: CD40, CD40 (gene 958); test: BSK_LPS_CD40: BioMAP Diversity Plus: LPS Assay for CD40 Biomarker Activity (AID 2283076); conditions: actives raise or lower the signal; primary human HUVEC with PBMC
# In short: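 ELISA readout of CD40 in HUVEC/PBMC co-culture (BSK_LPS system), 24 h post-dosing; bidirectional curve fit, DMSO baseline; parallel SRB total-protein staining for cytotoxicity.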
# [9] = read-out: Macrophage colony-stimulating factor (MCSF), CSF1 (gene 1435); test: BSK_LPS_MCSF: BioMAP Diversity Plus: LPS Assay for Macrophage colony-stimulating factor (MCSF) Biomarker Activity (AID 2283083); conditions: actives raise or lower the signal; primary human HUVEC with PBMC
# In short: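 HUVEC + PBMC co-culture (human primary), 24 h post-dose; M-CSF by ELISA; gain/loss of signal fitted bidirectionally vs DMSO baseline.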
# [10] = biological target: human Thyroid Receptor alpha (THRa1), THRA (gene 7067) (UniProt P10827); test: ATG_THRa1_TRANS: Attagene TRANS-FACTORIAL HepG2 Assay for human Thyroid Receptor alpha (THRa1) (AID 2283014; active means hit-call score of the fitted dose curve at least 0.9, where 1 is the maximum)
# In short: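 Transient HepG2 transfection, NR-Gal4 chimera driving GAL4-UAS reporters; 24 h compound exposure; total RNA, oligo(dT) RT, PCR, fluorescent primer extension, capillary electrophoresis. Upward direction vs DMSO control.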
# [11] = biological target: human Vitamin D Receptor (VDR), VDR (gene 7421) (UniProt P11473); test: ATG_VDR_TRANS: Attagene TRANS-FACTORIAL HepG2 Assay for human Vitamin D Receptor (VDR) (AID 2283022; active means hit-call score of the fitted dose curve at least 0.9, where 1 is the maximum)
# In short: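 RT-PCR/capillary electrophoresis read-out of reporter mRNA induction in transiently transfected HepG2; 24 h dosing; chimeric NR-Gal4 (TRANS format); gain-of-signal fit against DMSO baseline.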
# [12] = read-out: Monocyte Chemoattractant Protein-1 (MCP1), CCL2 (gene 6347); test: BSK_4H_MCP1: BioMAP Diversity Plus: 4H Assay for Monocyte Chemoattractant Protein-1 (MCP1) Biomarker Activity (AID 2283018); conditions: actives raise or lower the signal; primary human endothelial cells (HUVEC)
# In short: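 Human umbilical vein endothelial cells (4H system) exposed to chemicals for 24 h in 96-well format. MCP-1 measured by ELISA; bidirectional fitting against DMSO, with SRB total-protein staining in parallel cultures for cytotoxicity.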
# [13] = BSK_3C_Vis: BioMAP Diversity Plus: 3C Assay for Morphology Visualization (AID 2283025); conditions: primary human endothelial cells (HUVEC);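 further: light microscopy image of cell morphology used as background control; fitted both ways so gain or loss versus DMSO counts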
# In short: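 Human umbilical vein endothelial cell morphology was inspected by light microscopy 24 h after chemical dosing; scored bidirectionally relative to DMSO.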
# [14] = read-out: urokinase plasminogen activator (uPA), PLAU (gene 5328); test: BSK_BE3C_uPA: BioMAP Diversity Plus: BE3C Assay for urokinase plasminogen activator (uPA) Biomarker Activity (AID 2283038); conditions: actives raise or lower the signal; primary human bronchial epithelial cells
# In short: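 ELISA read-out of uPA in human lung primary bronchial epithelial cultures, 24 h post-dosing. Gain or loss of signal fitted bidirectionally relative to DMSO baseline; cytotoxicity checked in parallel cultures via SRB total protein stain.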
# [15] = read-out: Monocyte Chemoattractant Protein-1 (MCP1), CCL2 (gene 6347); test: BSK_LPS_MCP1: BioMAP Diversity Plus: LPS Assay for Monocyte Chemoattractant Protein-1 (MCP1) Biomarker Activity (AID 2283081); conditions: actives raise or lower the signal; primary human HUVEC with PBMC;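 further: secreted MCP-1 protein quantified by ELISA in culture supernatant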
# In short: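 ELISA read-out of MCP-1 after 24 h chemical dosing of a human umbilical vein endothelial cell/peripheral blood mononuclear cell co-culture stimulated with LPS. Gain or loss of signal fitted relative to DMSO controls.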
# [16] = read-out: BCL2L11 (gene 10018); test: LTEA_HepaRG_BCL2L11: Life Technologies and Expression Analysis (LTEA) Assay for Bcl-2 (BCL2L11) gene using HepaRG (AID 2283473); conditions: actives raise or lower the signal; mRNA level, 48 h
# In short: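 HepaRG, 48 h exposure, 8-pt half-log series from 100 uM in 0.5% DMSO, duplicates; qRT-PCR (Fluidigm TaqMan) for BCL2L11, housekeeping-normalized; bidirectional curve fit relative to DMSO baseline.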
# [17] = Tanguay_ZF_120hpf_CIRC_legacy: (Legacy) Oregon State University Tanguay Lab 120 Hour Post-fertilization zebrafish Assay for Circulatory Malformation (AID 2283651; active means hit-call score of the fitted dose curve at least 0.9, where 1 is the maximum)
# In short: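 Dechorionated wild-type 5D zebrafish embryos, one per well, statically exposed from 6 to 120 hpf at 28C with 0.64% DMSO; circulatory malformation scored present/absent by brightfield microscopy at 120 hpf, dead embryos excluded.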
# [18] = read-out: sulfotransferase (SULT2A), SULT2A1 (gene 6822); test: CLD_SULT2A_6hr: CellzDirect (CLD) Gene Expression Assay for sulfotransferase (SULT2A) at 6 hours (AID 2283669; active means hit-call score of the fitted dose curve at least 0.9, where 1 is the maximum;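 further: hits raise transcript level above the DMSO vehicle baseline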)
# In short: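 Primary human hepatocytes from two donor preparations were dosed daily with chemicals or 0.2% DMSO and harvested at 6 h. Transcript induction read by qNPA chemiluminescence, fitted for gain of signal relative to DMSO; morphology-based cytotoxicity annotated.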
# [19] = read-out: Glyceraldehyde-3-phosphate dehydrogenase (Homo sapiens) (UniProt P04406); test: CLD_GAPDH_6hr: CellzDirect (CLD) Gene Expression Assay for Baseline Control (Glyceraldehyde 3-phosphate dehydrogenase) at 6 hours (AID 2283681; active means hit-call score of the fitted dose curve at least 0.9, where 1 is the maximum;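 further: active means increased signal relative to DMSO vehicle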)
# In short: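 Primary human hepatocytes from two donor preparations, dosed at multiple concentrations with 0.2% DMSO vehicle; GAPDH mRNA measured 6 h after dosing by chemiluminescent quantitative nuclease protection assay (qNPA) on denatured lysates. Serves as background control; cytotoxicity annotated by morphology.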
# Chain of UniProt P11473 (P11473 whole entry, looked up, the tested form may be a part): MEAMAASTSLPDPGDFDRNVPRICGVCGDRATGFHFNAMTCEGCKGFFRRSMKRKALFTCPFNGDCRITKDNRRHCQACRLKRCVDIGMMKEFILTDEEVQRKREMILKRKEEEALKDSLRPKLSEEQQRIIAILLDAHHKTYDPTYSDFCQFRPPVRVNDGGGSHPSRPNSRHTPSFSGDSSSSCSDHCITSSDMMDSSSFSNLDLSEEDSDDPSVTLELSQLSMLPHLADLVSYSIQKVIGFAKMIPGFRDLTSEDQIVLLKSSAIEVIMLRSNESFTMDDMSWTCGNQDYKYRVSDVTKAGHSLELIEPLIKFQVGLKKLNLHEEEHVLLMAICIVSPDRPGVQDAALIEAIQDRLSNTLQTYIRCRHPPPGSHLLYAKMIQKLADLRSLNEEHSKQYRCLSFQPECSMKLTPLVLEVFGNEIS
# Chain of UniProt P51449 (P51449 whole entry, looked up, the tested form may be a part): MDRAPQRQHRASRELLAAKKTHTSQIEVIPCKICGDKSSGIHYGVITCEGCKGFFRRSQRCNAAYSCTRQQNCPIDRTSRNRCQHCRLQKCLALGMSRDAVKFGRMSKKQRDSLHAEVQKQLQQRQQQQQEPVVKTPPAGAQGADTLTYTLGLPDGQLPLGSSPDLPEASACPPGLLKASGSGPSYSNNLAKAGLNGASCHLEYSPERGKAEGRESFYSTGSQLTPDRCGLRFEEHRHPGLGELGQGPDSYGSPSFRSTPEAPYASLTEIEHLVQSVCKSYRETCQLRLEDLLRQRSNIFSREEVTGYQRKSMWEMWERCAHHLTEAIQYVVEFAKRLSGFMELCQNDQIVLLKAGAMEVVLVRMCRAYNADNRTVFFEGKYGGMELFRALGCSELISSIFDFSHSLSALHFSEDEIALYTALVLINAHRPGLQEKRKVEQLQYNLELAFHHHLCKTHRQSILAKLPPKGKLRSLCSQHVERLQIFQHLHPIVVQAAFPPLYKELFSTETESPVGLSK
# Chain of UniProt P10827 (P10827 whole entry, looked up, the tested form may be a part): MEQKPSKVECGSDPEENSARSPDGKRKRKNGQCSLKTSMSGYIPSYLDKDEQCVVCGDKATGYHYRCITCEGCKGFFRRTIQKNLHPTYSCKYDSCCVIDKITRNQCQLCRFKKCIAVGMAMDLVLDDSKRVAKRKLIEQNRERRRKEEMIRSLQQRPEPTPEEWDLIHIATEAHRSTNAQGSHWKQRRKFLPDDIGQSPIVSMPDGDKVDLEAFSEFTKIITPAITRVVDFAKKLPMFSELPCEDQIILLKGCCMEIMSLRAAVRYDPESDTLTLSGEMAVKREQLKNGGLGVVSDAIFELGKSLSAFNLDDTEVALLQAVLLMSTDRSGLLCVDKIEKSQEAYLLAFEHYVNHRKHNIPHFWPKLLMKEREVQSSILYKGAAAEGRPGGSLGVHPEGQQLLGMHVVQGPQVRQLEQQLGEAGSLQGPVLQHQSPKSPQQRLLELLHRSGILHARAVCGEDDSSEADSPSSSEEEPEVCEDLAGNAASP
# Chain of UniProt P04406 (P04406 whole entry, looked up): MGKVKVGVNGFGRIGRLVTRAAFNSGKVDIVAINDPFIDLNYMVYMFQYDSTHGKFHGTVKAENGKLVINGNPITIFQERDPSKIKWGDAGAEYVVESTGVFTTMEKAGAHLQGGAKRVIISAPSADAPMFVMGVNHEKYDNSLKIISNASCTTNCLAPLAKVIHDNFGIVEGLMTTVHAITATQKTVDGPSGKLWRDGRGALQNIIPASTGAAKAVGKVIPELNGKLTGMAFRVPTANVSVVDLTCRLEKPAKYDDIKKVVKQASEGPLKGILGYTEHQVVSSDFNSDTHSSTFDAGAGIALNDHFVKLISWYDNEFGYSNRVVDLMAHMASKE
structure (smiles),measurement,setting,value
O=C1c2ccccc2C(=O)N1SC1CCCCC1,outcome,[1],inactive
Oc1c(Cl)cc(Cl)cc1Sc1cc(Cl)cc(Cl)c1O,AC50,[2],active: 18.2 µM and active: 34.5 µM
same,AC50,[3],active: 11.9 µM
same,AC50,[4],active: 6.16 µM
same,AC50,[5],active: 4.74 µM
same,AC50,[6],active: 18.7 µM
same,AC50,[7],active: 2.07 µM
same,AC50,[8],active: 16 µM
same,AC50,[9],active: 20 µM
Cc1cc(O)cc(C)c1Cl,outcome,[10],inactive
C=C(C)C(=O)OCC1CCCO1 (stereo not given),outcome,[11],inactive
CCCCCCCCCCCCCCCC(=O)OC/C=C(C)/C=C/C=C(C)/C=C/C1=C(C)CCCC1(C)C,outcome,[12],inactive
O=C(Nc1ccc([N+](=O)[O-])cc1Cl)c1cc(Cl)ccc1O,AC50,[12],active: 0.154 µM
same,AC50,[13],active: 1.23 µM
same,AC50,[14],active: 2.62 µM
same,AC50,[15],active: 0.504 µM
same,outcome,[16],inactive
same,outcome,[17],inactive
same,outcome,[18],inactive
same,outcome,[19],inactive
